# PubChem BioAssay AID651820 (National Center for Advancing Translational Sciences (NCATS), 2012)
# Among all 340,000 compounds or so, about 12,000 (3.5%) were called active. Inconclusive means that the source gave no clear call. Such entries were picked first, then a sample of the others. Calls follow the shape of the dose curve; as a rule, active = well fitted inhibition curve with a large enough effect; inconclusive = small, poorly fitted or top-dose-only effect, or another doubt; inactive = no such curve, though single readings can be large or run the other way. No potency is given beside an inconclusive call; the fits are too rough.
# Assay: qHTS Assay for Inhibitors of Hepatitis C Virus (HCV)
# Conditions: Huh7.5.1 HCVcc-Cre (HCVcc is cell-culture hepatitis C virus) infection, luciferase reporter, 44 h; series mostly up to 41.8 µM
# Summary of the method: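 Seed cells (1,000/well) for 4 h; treat with compound and infect with HCVcc-Cre, moi about 0.5. Incubate 44 h, then detect luciferase activity.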
# Potency is read from the fitted curve at half-maximal effect; tags tell the direction and shape of the fitted curve.
row,Structure (SMILES),Potency
1,Cc1cc(Cl)ccc1OCC(=O)N/N=C1\CCCc2ccccc21,"inconclusive [inhibitor, full curve, poor fit]"
2,Cc1ccc(S(=O)(=O)Nc2cccc(C(=O)NC3CCN(Cc4ccccc4)CC3)c2)cc1F,"inconclusive [inhibitor, partial curve]"
3,COc1ccc(OCC(=O)Nc2ccc3c(c2)nc(CCN2CCCCC2)n3C)cc1,inactive
4,Oc1ccc(/C=N/N2CCCCC2)c(O)c1O,inactive
5,CCS(=O)(=O)c1ccc2oc(SCC(=O)N3c4ccccc4CC3C)nc2c1 (stereo not given),"inconclusive [inhibitor, single point]"
6,CCc1cccc(NC(=O)c2ccc(Cn3nc(C)cc3C)o2)c1,"inconclusive [inhibitor, full curve, poor fit]"
7,CCOC(=O)Nc1ccc2c(COC(=O)CNS(=O)(=O)c3ccc(NC(C)=O)cc3)cc(=O)oc2c1,inactive
8,Cc1cc(O)c(C2(C(F)(F)F)NCCNC2=O)cc1C (stereo not given),inactive
9,Cc1cccc(N(C(=O)c2snc(C(N)=O)c2N)C(C(=O)NCC2CCCO2)c2ccc3ncccc3c2)c1 (stereo not given),inactive
10,Cc1ccc(Cn2c(C(C)Nc3nc(-c4ccc(F)cc4)cs3)nc3cc(C(=O)NCCCO)ccc32)cc1 (stereo not given),"inconclusive [inhibitor, single point]"
11,CCC1=C(OC(=O)N(CC)CC)N2C(=O)OC(=NCC(=O)OC)[C@]2(Cc2ccccc2)[C@H]2C1=CC[C@H]1C(=O)N(CC(=O)OC)C(=O)[C@H]12,inactive
12,Cc1ccc(OCc2cc(C(=O)N3CCCC3)no2)cn1,"inconclusive [inhibitor, single point]"
13,Cc1c(C)c(C)c(C(=O)C2CCN(c3ccc([N+](=O)[O-])cn3)CC2)c(C)c1C,"inconclusive [inhibitor, single point]"
14,c1cc2c(cc1CCNC1C3CC4CC(C3)CC1C4)OCO2 (stereo not given),"inconclusive [inhibitor, single point]"
15,CCOC(=O)N1CCN(c2cc(N3CCOCC3)c(F)cc2[N+](=O)[O-])CC1,inactive
16,CC(OC(=O)/C=C/c1ccco1)C(=O)NC1CCCCC1C (stereo not given),"inconclusive [inhibitor, single point]"
17,COc1ccc(-c2cc3ccccc3oc2=O)cc1NC(=O)c1ccc([N+](=O)[O-])o1,"inconclusive [inhibitor, full curve]"
18,Cc1cc(OC(C)C(=O)NCc2cccnc2)c2c(C)c(C)c(=O)oc2c1 (stereo not given),inactive
19,CN(C)CCCNC(=O)C[C@H]1C[C@H](C(=O)N2CCOCC2)[C@@]2(C)c3[nH]c4cc(CCC(=O)N(C)C)ccc4c3CCN2C1=O,"inconclusive [inhibitor, single point]"
20,COc1cccc(C(=O)Oc2ccc(/C=N/Nc3ccc(C(=O)O)cc3)cc2OC)c1,inactive
21,CCC(=O)Nc1nc2ccccc2n1Cc1ccc(C)cc1,inactive
22,O=C(c1ccccc1)c1nc2c(n1O)CCCCC2,inactive
23,CS(=O)(=O)c1ccc(C(=O)Nc2ccc(-c3nc4ccccc4[nH]3)cc2)cc1,inactive
24,Cc1cc(NC(=O)Cn2c(=O)n(Cc3ccccc3)c(=O)c3ccccc32)no1,inactive
25,Cc1ccc(-c2cc(C(=O)N3CCN(c4ccccc4O)CC3)c3ccccc3n2)o1,inactive

row,Structure (SMILES),Potency
1,CCOC(=O)N1CCN(C(=O)c2ccc(S(=O)(=O)Nc3cccc(C(F)(F)F)c3)cc2)CC1,"inconclusive [inhibitor, partial curve]"
2,CCOC(=O)c1c(-c2ccc(OC)cc2)oc2ccc(OC(=O)N(C)C)cc12,active: 0.316 µM
3,CN1CC(c2ccc(Cl)c(Cl)c2)[C@@]2(COc3ccccc3C2=O)[C@@]12C(=O)Nc1ccccc12 (stereo not given in full),active: 11.2 µM
4,COc1cccc(OCC(O)CN2CCC(Cc3ccccc3)CC2)c1 (stereo not given),"inconclusive [inhibitor, partial curve]"
5,COc1cc(-c2[nH]ncc2CN2CCN(Cc3cccs3)CC2)cc(OC)c1OC,"inconclusive [inhibitor, single point]"
6,O=C(O)C(CCc1ccccc1)(Cc1ccccc1)C(=O)O,inactive
7,O=C(c1cc([N+](=O)[O-])ccc1Cl)N1CCN(c2ccccc2)CC1,inactive
8,O=c1c2ccccc2nnn1CSc1nnc2ccccn12,inactive
9,COc1cccc(-c2sc3ccc(OC)cc3c2C#CCC(C)O)c1 (stereo not given),"inconclusive [inhibitor, partial curve]"
10,CCc1nnc(NC(=O)c2cc(-c3ccc(C)o3)nc3ccccc23)s1,inactive
11,CCOC(=O)c1c(C)[nH]c(C)c1C(=O)COC(=O)c1ccc(OC)cc1,inactive
12,COC(=O)c1ccc(NC(=O)COc2ccc(S(=O)(=O)NC(C)C)cc2)cc1,"inconclusive [inhibitor, full curve]"
13,C=CCOc1ccc(/C=C/C(=O)OCC(=O)N2CCC(c3ccccc3)=N2)cc1,"inconclusive [inhibitor, full curve]"
14,CN1CCN(c2nc(N(C)C)oc(=O)c2C#N)CC1,inactive
15,C=CCn1c(SCC(=O)NC(=O)c2cccc([N+](=O)[O-])c2)nnc1-c1ccccc1,inactive
16,Cc1[nH]c2ccccc2c1-c1nc2ccccc2[nH]1,"inconclusive [inhibitor, single point]"
17,O=C(CCNC(=O)c1ccc(Br)cc1)Nc1cccc(S(=O)(=O)N2CCCCCC2)c1,"inconclusive [inhibitor, single point]"
18,O=C(Nc1ccc(Br)cn1)c1coc(=O)c(Br)c1,inactive
19,Cc1nc(Nc2cccc(O)c2)c2c3c(sc2n1)CCC3,"inconclusive [inhibitor, single point]"
20,O=C(Nc1cccc(NC(=O)c2ccc3c(c2)OCO3)c1)c1ccccc1,"inconclusive [inhibitor, partial curve]"
21,Nc1c(Br)cc(Br)c2c1-c1ccc([N+](=O)[O-])cc1C2,"inconclusive [inhibitor, partial curve, poor fit]"
22,CC(C)Sc1nc2c(c(=O)n(C)c(=O)n2C)n1Cc1ccc(Cl)cc1,active: 10 µM
23,Cc1cc(OCCOCCN(C)CCO)cc(C)c1Cl,"inconclusive [inhibitor, partial curve]"
24,c1ccc2c(CN3CCOCC3)csc2c1,inactive
25,CCOCC(=O)Nc1nc2c(s1)C(=O)CC(C)(C)C2,"inconclusive [inhibitor, single point]"

row,Structure (SMILES),Potency
1,Clc1ccc2c(c1)C(N1CCNCC1)Cc1ccccc1S2 (stereo not given),"inconclusive [inhibitor, single point]"
2,Cc1cc(C(=O)N2CCCC(N3CCN(c4ccc(F)cc4)CC3)C2)c(C)o1 (stereo not given),"inconclusive [inhibitor, single point]"
3,C/C(=N/NC(=O)c1ccc(Br)o1)c1ccncc1,inactive
4,O=C(CNC(=O)c1ccco1)NCC(=O)OCc1cccc(Cl)c1,inactive
5,CCOc1cc(CNCc2cccs2)cc(Br)c1OCC,"inconclusive [inhibitor, single point]"
6,Cc1ccccc1NS(=O)(=O)c1ccc(C(=O)NCC(c2ccco2)N2CCCCC2)cc1 (stereo not given),"inconclusive [inhibitor, single point]"
7,Cc1cc(=O)[nH]c(/N=C(\N)Nc2cccc3ccccc23)n1,inactive
8,Cc1cccc(S(=O)(=O)Nc2cccc(-c3cn4ccsc4n3)c2)c1,"inconclusive [inhibitor, partial curve]"
9,O=C(C=Cc1ccccc1)NCCNC(=O)C=Cc1ccccc1,inactive
10,Cc1ccc2oc(-c3ccco3)nc2c1,"inconclusive [inhibitor, partial curve]"
11,Clc1cccc(Cn2ncc3ccccc32)c1,inactive
12,CC1(C)C[C@@H]1C(=O)N/C(=C\CCCCSC[C@H](N)C(=O)O)C(=O)O,inactive
13,COc1ccc(Cl)cc1NS(=O)(=O)c1cccc(C(=O)NC2CCN(Cc3ccccc3)CC2)c1,"inconclusive [inhibitor, single point]"
14,COc1ccc(CCNC(=O)C2CCN(S(=O)(=O)c3ccc(SC)cc3)CC2)cc1,"inconclusive [inhibitor, partial curve, poor fit]"
15,Cc1ccsc1/C=N/NC(=O)c1cccc(S(=O)(=O)Nc2ccccc2Cl)c1,inactive
16,COc1ccc(NC(=O)C2CCCN(CCCc3ccccc3)C2)cc1OCC(C)C (stereo not given),"inconclusive [inhibitor, partial curve]"
17,c1ccc(CN2CCOCCOCCOCC2)cc1,inactive
18,N#CC1=C(N)N(c2ccccc2)C(c2ccco2)C1(C#N)C#N (stereo not given),"inconclusive [inhibitor, single point]"
19,CCOc1ccccc1NC(=O)Cc1ccccc1OC,"inconclusive [inhibitor, single point]"
20,O=S(=O)(NCCSc1ccccc1)c1cccs1,"inconclusive [inhibitor, full curve, poor fit]"
21,CNC(=S)N/N=C1\C(=O)c2cccc3cccc1c23,inactive
22,CCCC(=O)Nc1nnc(SCC(=O)N2CCCCC2)s1,"inconclusive [inhibitor, partial curve, poor fit]"
23,Cc1ccc(-c2n[nH]c(=S)n2/N=C/c2ccc(C(=O)O)cc2)cc1,inactive
24,COC(=O)c1ccc2nc(C)cc(Nc3ccccc3C)c2c1,"inconclusive [inhibitor, single point]"
25,Cc1cccc(N2CN(Cc3cccnc3)CNC2=S)c1,inactive
